Measurements reported in PubChem BioAssay AID602310 (National Center for Advancing Translational Sciences (NCATS), 2012).
Several values for one entry are separate records, joined by “and”; a condition that tells them apart may be missing. Equal values may be shown once. Hit rate of the full screen: of about 410,000 compounds, about 310 (0.076%) were called active. This list was built around the results that the source calls inconclusive (neither active nor inactive); the mix of calls is not that of the screen. Calls come from the whole dose curve; as a rule, active = well fitted curve in the direction sought with a large enough effect; inconclusive = small, poorly fitted or top-dose-only effect; inactive = flat fitted curve, though single readings scatter. Potencies of inconclusive entries are doubtful fits and often do not repeat. Square brackets hold non-standard residues; d marks the D form. Peptide text beside a SMILES is read from it.

Molecular target: DNA dC->dU-editing enzyme APOBEC-3G (Homo sapiens) (UniProt Q9HC16)
UniProt Q9HC16, sequence (Q9HC16 whole entry, looked up): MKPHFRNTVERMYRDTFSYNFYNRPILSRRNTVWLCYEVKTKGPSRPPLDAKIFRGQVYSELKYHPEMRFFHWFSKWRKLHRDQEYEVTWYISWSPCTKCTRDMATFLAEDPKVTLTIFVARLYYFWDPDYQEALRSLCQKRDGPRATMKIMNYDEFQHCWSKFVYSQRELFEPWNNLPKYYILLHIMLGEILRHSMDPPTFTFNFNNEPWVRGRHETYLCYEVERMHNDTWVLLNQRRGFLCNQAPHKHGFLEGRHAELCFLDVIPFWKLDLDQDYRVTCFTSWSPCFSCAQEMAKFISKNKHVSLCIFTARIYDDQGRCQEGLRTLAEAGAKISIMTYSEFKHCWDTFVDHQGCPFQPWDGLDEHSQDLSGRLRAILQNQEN
Assay: qHTS for Inhibitors of Vif-A3G Interactions: qHTS; note: nearly all actives have a fitted effect of over 60% in size
Settings: HeLa A3G-eYFP + Vif (tagged APOBEC3G with the HIV-1 protein that degrades it), YFP fluorescence, overnight; series mostly up to 46.1 µM
In short: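 HeLa cells stably expressing Vif and C-terminally eYFP-tagged A3G, seeded overnight at 37 deg C, then exposed to compound by pintool overnight at 37 deg C. Rise in yellow fluorescence (Ex 488/Em 500-530, Acumen) marks blocked Vif-driven A3G degradation.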
Potency is the fitted concentration of half-maximal effect; tags give direction and shape of the fitted curve.

| SMILES | Potency |
| --- | --- |
| COc1cc(NC(=O)N2CCNC2=O)cc(C(=O)Nc2cccc(C(F)(F)F)c2)c1 | inconclusive: 1.58 µM [inhibitor, full curve, poor fit] |
| COc1ccc(NC(=O)c2cc(C)n(Cc3cccs3)c2C)cc1 | inconclusive: 22.4 µM [inhibitor, single point] |
| CC1=CC2=NC(=O)/C(=C\c3ccc(-c4cccc(Cl)c4)o3)C(=N)N2O1 | inconclusive: 2.24 µM [inhibitor, full curve] |
| O=C(Nc1nc2ccc(F)cc2s1)c1ccc([N+](=O)[O-])o1 | inconclusive: 5.62 µM [inhibitor, full curve] |
| O=S(=O)(c1ccccc1)N1CCN(c2ccnc3cc(Cl)ccc23)CC1 | inactive |
| CO/N=C/C(=N\Nc1ccc(C)cc1)C(=O)c1ccc(OC)cc1 | inconclusive: 1.12 µM [inhibitor, full curve, poor fit] |
| CN(C)CCCN(C(=O)/C=C/c1cccs1)c1nc2ccc(F)cc2s1 | inconclusive: 20 µM [inhibitor, partial curve, poor fit] |
| COC(=O)c1[nH]c2c(c1C)C(=O)CC(c1cccs1)C2 (centres undefined) | inconclusive: 2 µM [inhibitor, full curve] |
| O=C(N/N=C/c1cccc(F)c1)c1cc(-c2ccco2)nc2ccccc12 | inconclusive: 11.2 µM [inhibitor, partial curve, poor fit] |
| CC(CCc1ccccc1)NC(=O)Cn1ncc2c3ccccc3n(Cc3ccccc3F)c2c1=O (centres undefined) | inactive |
| CC1CCN(S(=O)(=O)c2ccc(NC(=O)Cn3nnc(-c4ccccc4)n3)cc2)CC1 | inconclusive: 31.6 µM [inhibitor, single point] |
| CC[C@H](C)[C@@H]1NC(=O)[C@H]([C@@H](C)CC)NC(=O)[C@@H](CC(C)C)NC(=O)[C@H](Cc2ccccc2)NC(=O)[C@H](Cc2ccccc2)NC(=O)[C@@H]2CCCN2C(=O)[C@@H]2CCCN2C(=O)[C@H](C(C)C)NC(=O)[C@H](CC(C)C)NC1=O (cyclo(FF[dL]IILVPP)) | inconclusive: 25.1 µM [inhibitor, single point] |
| Cc1ccc2nc(/C=C/c3ccc(N(C)C)cc3)ccc2c1 | inconclusive: 11.2 µM [inhibitor, partial curve, poor fit] |
| CCCOc1ccc(N)cc1N | inconclusive: 25.1 µM [inhibitor, single point] |
| COC1C(CO)OC(n2c3c(Cl)cccc3c3c4c(c5c6cccc(Cl)c6[nH]c5c32)C(=O)NC4=O)C(O)C1O (centres undefined) | inconclusive: 15.8 µM [inhibitor, partial curve, poor fit] |
| Cc1ccc(/C=C/C(=O)NCCc2c[nH]c3ccccc23)o1 | inactive |
| CSC1=NC=C(C#N)C2=NC(c3c(Cl)cccc3Cl)NN12 (centres undefined) | inconclusive: 35.5 µM [inhibitor, single point] |
| COc1cc(OC)c(-c2oc3ccccc3c(=O)c2O)c(OC)c1 | inconclusive: 7.08 µM [inhibitor, full curve] |
| O=C(Nc1nc2ccccc2[nH]1)C1CC1 | inconclusive: 8.91 µM [inhibitor, partial curve] |
| COc1ccc(Cn2c(N)c(C#N)c3nc4ccccc4nc32)cc1OC | inconclusive: 20 µM [inhibitor, single point] |
| COc1cccc(-c2cnc3c(NC(C)=O)cc(-c4ccc(OC)c(OC)c4)cn23)c1 | inconclusive: 22.4 µM [inhibitor, single point] |
| Cc1cc(C)cc(C(=O)N2CC(=O)Nc3ccccc32)c1 | inconclusive: 0.631 µM [inhibitor, full curve, poor fit] |

| SMILES | Potency |
| --- | --- |
| Cc1ccc(NC(=S)/C(C#N)=C2/Nc3ccccc3S2)cc1 | inactive |
| CC(NC(=O)C12CC3CC(CC(C3)C1)C2)C(=O)NCCN(C)C (centres undefined) | inactive |
| CCCCCCCCCCCC[n+]1ccc(/C=C/c2c[nH]c3ccccc23)c2ccccc21 | inconclusive: 35.5 µM [inhibitor, single point] |
| COCCOC(=O)c1[nH]c2c(c1C)C(=O)CC(c1ccco1)C2 (centres undefined) | inconclusive: 1.58 µM [inhibitor, full curve, poor fit] |
| CCc1cccc(CC)c1NC(=O)C1SC(=Nc2ccccc2C)C(c2nc3ccccc3s2)=C1N (centres undefined) | inactive |
| CC1CCc2c(sc(NC(=O)CSc3ncn[nH]3)c2C#N)C1 (centres undefined) | inactive |
| CC(=O)c1c(C)oc2c1cc(NS(=O)(=O)c1ccc(C(=O)O)cc1)c1ccccc12 | inconclusive: 35.5 µM [inhibitor, single point] |
| COc1ccc(-c2cc(-c3ccco3)[nH]c(=O)c2C#N)cc1OC | inactive |
| CCN1C(=O)[C@@H]2[C@@H](c3ccc(-c4ccc(OC)cc4)cc3)N3CCC[C@@]3(C(=O)OC)[C@@H]2C1=O | inactive |
| CCN(CC)C(=O)CSc1nc2ccc(NC(=O)CSc3nccn3C)cc2s1 | inactive |
| COc1ccc(C)cc1NS(=O)(=O)c1ccc(Br)s1 | inconclusive: 35.5 µM [inhibitor, single point] |
| Nc1ccc2c(c1)OC1(CCCC1)O2 | inconclusive: 35.5 µM [inhibitor, single point] |
| COc1ccc(N2C(=O)C3C(C2=O)C(C(=O)c2ccccc2)N2CCCC32)cc1 (centres undefined) | inconclusive: 35.5 µM [inhibitor, single point] |
| CCCC(=O)Nc1nn(CC)c2nc3ccc(C)cc3cc12 | inactive |
| CCNc1oc(/C=C/c2ccc(OCC)cc2)nc1C#N | inconclusive: 2.82 µM [inhibitor, full curve, poor fit] |
| COc1ccc(-n2nc3c(N4CCCC(C(=O)NCCc5ccccc5C)C4)nnc(C)c3c2C)cc1 (centres undefined) | inconclusive: 35.5 µM [inhibitor, single point] |
| COc1ccc(/C=N/n2c(N)c(S(=O)(=O)c3cccs3)c3nc4ccccc4nc32)cc1OC | inactive |
| O=[N+]([O-])c1ccccc1S(=O)(=O)Nc1cccc2cccnc12 | inconclusive: 22.4 µM [inhibitor, single point] and inconclusive: 25.1 µM [inhibitor, single point] and inconclusive: 15.8 µM [inhibitor, single point] |
| COC(/C=C/Nc1ccc(OC)cc1)=C(C#N)C#N | inactive |
| O=C(CCl)NCCCCCCCCCNC(=O)CCl | inconclusive: 35.5 µM [inhibitor, single point] |
| O=C(O)Cc1cn(Cc2cccc(Cl)c2)c2ccccc12 | inactive |
| CCc1ccc(NCc2cc3ccc(OC)cc3n(CC(=O)Nc3ccc(C)c(Cl)c3)c2=O)cc1 | inactive |

| SMILES | Potency |
| --- | --- |
| COc1ccccc1-c1nnc2sc(-c3cc4ccccc4o3)nn12 | inconclusive: 1.26 µM [inhibitor, full curve, poor fit] |
| Cc1nn(-c2ccccc2)c(C)c1/C=N/NC(=O)c1cccs1 | inconclusive: 15.8 µM [inhibitor, single point] |
| OCCNc1c2ccccc2nc2c(F)c(F)c(F)c(F)c12 | inconclusive: 3.16 µM [inhibitor, single point] |
| Cc1ccc(/C(O)=C/c2nc3ccccc3oc2=O)cc1 | inconclusive: 28.2 µM [inhibitor, single point] |
| Cc1ccc(CCNC(=O)c2c(C)nn(-c3ccc(F)cc3)c2-n2cccc2)cc1 | inconclusive: 1.78 µM [inhibitor, partial curve, poor fit] |
| Cc1ccc(NS(=O)(=O)c2ccc(-c3cc(C)no3)cc2)c(Br)c1 | inactive |
| Clc1ccc2[nH]c3c(NCCN4CCOCC4)ncnc3c2c1 | inactive |
| Cc1nonc1NC(=O)CSc1nc2c(C)cccc2cc1C#N | inconclusive: 35.5 µM [inhibitor, single point] |
| Cc1cc(C)n2nc(C(=O)N/N=C/c3c4ccccc4cc4ccccc34)nc2n1 | inconclusive: 14.1 µM [inhibitor, partial curve, poor fit] |
| COc1cc(C2Nc3cc(C)c(C)cc3NC3=C2C(=O)CC(C)(C)C3)ccc1OC(C)=O (centres undefined) | inactive |
| O=C(Cn1nnc(-c2ccccc2Cl)n1)N/N=C/c1ccc2c(c1)OCO2 | inactive |
| Clc1ccc(/C=N/NC2=Nc3cccc4cccc2c34)cc1 | inconclusive: 10 µM [inhibitor, partial curve, poor fit] |
| CC(=O)Nc1ccc(SCCN2CCN(CCc3ccccc3)CCC2=O)cc1 | inconclusive: 28.2 µM [inhibitor, single point] |
| C[C@@H]1CCCCO[C@@H](CN(C)CC2CCCCC2)[C@@H](C)CN([C@H](C)CO)C(=O)c2cc(NS(=O)(=O)c3ccc(Cl)cc3)ccc2O1 | inactive |
| CCOc1cc(S(=O)(=O)NCCc2c(C)[nH]c3ccc(C)cc23)ccc1Br | inconclusive: 15.8 µM [inhibitor, single point] |
| COc1ccc(C2Nc3ccccc3C(=O)N2Cc2ccco2)cc1COc1c(C)cccc1C (centres undefined) | inactive |
| O=C1CCCN1c1ccc(S(=O)(=O)Nc2ccc3c(c2)OCCO3)cc1 | inconclusive: 11.2 µM [inhibitor, partial curve] |
| O=C(Cc1csc(Nc2nc(=S)[nH]c3ccccc23)n1)NCCCN1CCN(c2ccccc2F)CC1 | inconclusive: 35.5 µM [inhibitor, single point] |
| COc1ccc(CCN2CCC(CNC(=O)c3cnn(-c4cccc(Cl)c4)c3C3CCN(C(=O)OC(C)(C)C)CC3)CC2)cc1 | inconclusive: 35.5 µM [inhibitor, partial curve, poor fit] |
| CCOC(=O)c1c2c(n3ccccc13)C(=O)c1ccccc1C2=O | inconclusive: 3.16 µM [inhibitor, partial curve, poor fit] |
